Results from the BET-seq Pho4 binding data (Le et al. 2018).
The other results are listed elsewhere or left out. These are noisy estimates, calculated here from bound and input reads.

Target: T1, Pho4 (S. cerevisiae) (UniProt P07270)
T1 sequence: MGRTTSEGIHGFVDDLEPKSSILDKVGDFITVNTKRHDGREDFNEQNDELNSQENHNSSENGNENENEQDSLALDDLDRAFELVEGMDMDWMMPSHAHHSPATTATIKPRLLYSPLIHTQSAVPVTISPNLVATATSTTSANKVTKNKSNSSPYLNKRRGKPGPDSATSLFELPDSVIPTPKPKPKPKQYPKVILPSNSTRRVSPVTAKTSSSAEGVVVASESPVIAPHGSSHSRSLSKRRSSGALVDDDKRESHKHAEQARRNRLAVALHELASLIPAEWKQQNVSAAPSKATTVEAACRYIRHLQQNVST
Test: relative binding free energy (BET-seq); higher = weaker binding
Settings: reference: library average

Sequence | relative binding free energy [kcal/mol]
CGGGGCACGTGTGTAC | -0.05
TCTGGCACGTGGGATC | -0.06
AGTGGCACGTGGATCT | -0.08
ATTAGCACGTGGAGGG | -0.14
GGGTGCACGTGCTTCG | -0.13
TGTAGCACGTGACAGG | 0.06
TGTAACACGTGTGTGG | 0.04
AAGTTCACGTGAAGTT | 0.34
TAGTACACGTGGGGGG | -0.09
TTGGACACGTGATTAA | 0.19
GGATACACGTGTGCGG | -0.01
AGTTGCACGTGTTACA | -0.04
GGAGGCACGTGCAATG | -0.11
GGGGGCACGTGGAACT | 0.02
GTGAGCACGTGGCGGT | -0.16
TTATGCACGTGTTGTA | 0.01
ATGTACACGTGTAGTA | 0.16
TTTGACACGTGTGAAT | 0.1
GGTTACACGTGCAGTT | 0.22
TGGGACACGTGCAAGG | 0.12
CGTGTCACGTGACTGT | 0.08
GATAGCACGTGGGCAT | -0.06
TAGTTCACGTGTCATT | 0.2
TGGGTCACGTGCCGAG | 0.04
TATGTCACGTGTTACT | 0.07
GAGCGCACGTGTCGGT | 0.04

Sequence | relative binding free energy [kcal/mol]
TAGGGCACGTGTTTGT | -0.1
AGGGGCACGTGGGGCT | -0.22
ATTTACACGTGGGACG | 0.16
AGGACCACGTGGGGAT | -0.09
ATGATCACGTGTTTAA | 0.12
GTTTTCACGTGGCTAG | 0.33
TTTCTCACGTGTCAGG | 0.19
TTAAGCACGTGATGGA | 0.14
AAATTCACGTGTGAGT | 0.16
CATGTCACGTGGGAGT | 0.01
GGAGACACGTGTAGTG | 0.24
GCAGGCACGTGGGAGG | -0.14
TTATTCACGTGTCTAT | 0.05
GTTACCACGTGGTATT | -0.09
CTTGGCACGTGCGGTG | -0.19
AGATTCACGTGGTTTC | 0.31
CGGGGCACGTGTTAGT | -0.03
GGGGTCACGTGCACAG | 0.08
ATGATCACGTGGTATT | 0.14
AGTTGCACGTGGTTAG | -0.11
AAGGCCACGTGAGGTG | 0.16
TTAAGCACGTGTTTCT | -0.19
GATGGCACGTGATATG | 0
AAGGTCACGTGAGCTG | 0.34
GAGTGCACGTGTGAGT | 0.15
ATTAGCACGTGAGGCT | 0.1

Sequence | relative binding free energy [kcal/mol]
AAGCTCACGTGGTGTG | 0.21
AAGTTCACGTGGGTGC | 0.22
GTCGGCACGTGGAGAG | 0.07
GGATTCACGTGATAGA | 0.44
TTGGTCACGTGCAATT | 0.19
ATGGTCACGTGTGTAA | 0.13
GTAAGCACGTGTTATT | 0
GTGGCCACGTGGGAAG | -0.11
ATGTTCACGTGGCCTT | 0.12
GGAGTCACGTGAGATT | 0.38
CGAAGCACGTGGGGGG | -0.18
TTCTGCACGTGGTGTA | -0.05
GGGGGCACGTGTGATT | 0.05
AATGTCACGTGAGGGT | 0.21
CTGTACACGTGTTGCG | 0.11
GCTTACACGTGAGTGG | 0.23
GTGGTCACGTGCGGCT | 0.09
GATAGCACGTGAAGGT | 0.16
GGGTACACGTGGGCGT | -0.07
GCTGTCACGTGCATGG | 0.09
AGTTCCACGTGTGTTA | 0.03
ATAGGCACGTGGTATG | -0.26
CGGTACACGTGGGAGC | 0.1
GGGAGCACGTGGAAGT | 0.06
TCGTTCACGTGTGGGC | 0.33
ATGGCCACGTGTGTTA | -0.02

Sequence | relative binding free energy [kcal/mol]
AATTGCACGTGAGGTA | 0.2
GGCATCACGTGCGTGG | 0.14
GTAGGCACGTGCTTGT | -0.22
TCGGGCACGTGCATTG | -0.07
GGTAGCACGTGCTAGG | -0.18
GATGTCACGTGTGTCT | 0.12
TGTGTCACGTGATAAA | 0.06
TTAAGCACGTGAACGT | 0.19
TGTCACACGTGCTGGT | 0.07
TATTACACGTGGTCTG | 0.07
CTGTTCACGTGGAGTA | 0.18
TCGCTCACGTGTATGT | 0.15
GTATGCACGTGTCGGT | 0.11
GTGACCACGTGGTTTA | 0.01
TTAAGCACGTGTAGTG | -0.03
TTGGGCACGTGGTTTA | -0.05
GTAGTCACGTGTGAAA | 0.02
TTGGGCACGTGAAATG | 0.18
GGTGGCACGTGGGTAG | -0.21
TCGCGCACGTGGTGGT | -0.2
CTGTTCACGTGTATTT | 0.35
TGTTACACGTGTGCCT | 0.19
CTATGCACGTGTGTTT | -0.07
TGGTACACGTGCAATG | 0.24
GAGTTCACGTGTGAAG | 0.27
GGAGGCACGTGGTGGA | -0.16

Sequence | relative binding free energy [kcal/mol]
TATTACACGTGCAGGT | 0.14
GTTATCACGTGGGGTG | 0.11
TATTTCACGTGTCGAT | 0.26
TTTCTCACGTGTAGGA | 0.12
AGGCGCACGTGGGTTT | -0.03
TGGGACACGTGATGTA | 0.09
CTTTTCACGTGTTGTT | 0.3
GTGTGCACGTGCTGGC | 0.05
TATGGCACGTGGTGAT | -0.16
AGATTCACGTGAGAAG | 0.4
GGGGGCACGTGACGGT | 0.05
ATATACACGTGTTTGA | -0.03
GTGGTCACGTGAGGTT | 0.43
CTTGTCACGTGGTGCG | 0.03
TTTTTCACGTGGGGCG | 0.25
CAGGGCACGTGATGGG | 0.06
TACATCACGTGGGTAG | -0.06
ATCGTCACGTGGAGGA | 0.1
AAGGGCACGTGGGCCT | -0.14
TTTATCACGTGAAGAA | 0.37
TTGGTCACGTGATGAC | 0.29
TTAAGCACGTGGTTTG | -0.15
TCGGGCACGTGTGACT | 0.06
TTGGACACGTGTTGAT | 0.06
TTTTACACGTGGTATC | 0.02
AAGCTCACGTGAATGT | 0.49

Sequence | relative binding free energy [kcal/mol]
TAGTTCACGTGTGGAT | 0.33
AGTGCCACGTGGTGTT | -0.22
TGGGGCACGTGGTCTT | -0.23
TTGGTCACGTGCAATA | 0.2
TGCGTCACGTGGGGGC | 0.01
GTTATCACGTGTAGCG | 0.3
TATTGCACGTGAATGA | 0.19
TCAAGCACGTGTGAGG | 0
GTTGACACGTGCGTTT | -0.01
GAGTCCACGTGTGATG | 0.35
CGGTACACGTGGTGAT | 0.01
TTATTCACGTGTTTGT | 0.25
GCATTCACGTGTTGGG | 0.29
CATTTCACGTGTTGAG | 0.35
CTTGACACGTGTGGGG | 0.06
TTAATCACGTGGTACG | 0.13
TGAATCACGTGAGGTG | 0.32
TAAGTCACGTGTAAAT | 0.27
TTTTACACGTGCGTTC | 0.09
TGATGCACGTGTGCAT | -0.07
TGGTACACGTGAATAT | 0.27
TCCTTCACGTGTGGGT | 0.27
AGTGCCACGTGTGATA | -0.02
GTTGGCACGTGATAAT | 0.04
GCGTTCACGTGGTAGG | 0.21
AAGTGCACGTGCTGCG | -0.05

Sequence | relative binding free energy [kcal/mol]
ATCTTCACGTGATGTG | 0.46
TCGGACACGTGGAGGC | 0.1
TTAGTCACGTGGAGGA | 0.19
GCTGTCACGTGGTAGT | 0.01
TCAGGCACGTGGTGGA | -0.17
GATTACACGTGGCGGA | 0.29
TATTACACGTGGAGTA | 0.27
CGGCTCACGTGTTTGG | 0.11
TAACTCACGTGTAGTG | 0.16
TTAGGCACGTGTCAAT | -0.12
CCTGACACGTGTGGGG | 0.05
AGATGCACGTGATATT | 0.17
ATTTTCACGTGCTGAT | 0.13
GGTGTCACGTGGTACG | -0.02
TCTAACACGTGGTGTG | -0.1
GAGAACACGTGGTGGT | 0.05
CAAGTCACGTGAGGGT | 0.39
TGTGCCACGTGGTTTT | -0.11
TCATTCACGTGAGGGA | 0.35
CTGTTCACGTGTTAAG | 0.14
GTGTACACGTGTCAGT | -0.09
GCGTGCACGTGAGGCG | 0.22
AGAATCACGTGTGCGG | 0.2
GTAGTCACGTGGGCTA | 0.06
AGTGCCACGTGCTGGG | -0.12
CGGTGCACGTGAGCGA | 0.26

Sequence | relative binding free energy [kcal/mol]
TGCGACACGTGATATG | 0.15
GGGCGCACGTGTTGCT | -0.09
TTGAGCACGTGGTGGT | -0.12
AGGGACACGTGTTGTT | 0.01
GAGGTCACGTGGCAGG | 0.14
ACGGTCACGTGGGATA | 0.06
GGGGGCACGTGAGTTG | 0.13
ATTGCCACGTGGGAAT | -0.1
CCTTGCACGTGGGGTG | -0.28
AGGTACACGTGAATAT | 0.37
ACGAGCACGTGCTGGG | 0.02
GCGGTCACGTGTTGAG | 0.14
ATGAGCACGTGGAGAT | -0.14
GGTGACACGTGATATT | 0.2
TTTGACACGTGCATGT | -0.04
AAGGCCACGTGGGTGG | -0.34
TCTGGCACGTGTTAGG | -0.05
AATGGCACGTGTGCGG | -0.11
TAGATCACGTGTTGTA | 0.05
AATGTCACGTGATTTG | 0.24
TGTATCACGTGCGTTC | 0.08
TTGGGCACGTGACGTA | -0.05
TTAATCACGTGGCTGA | 0.15
TTGGTCACGTGGAATC | 0.27
CCGTTCACGTGAGGGG | 0.39
TCGGTCACGTGATGAG | 0.23

Sequence | relative binding free energy [kcal/mol]
AATTACACGTGGATGT | 0.09
GGGTGCACGTGGGTTG | -0.14
TTTTGCACGTGTAGAT | 0.19
TTGAACACGTGAATAT | 0.24
GTTTGCACGTGGGTAC | -0.09
AATAACACGTGTTGGA | -0.09
TATAGCACGTGTAATT | 0.05
CAGAGCACGTGTTTGG | 0.02
GTTTACACGTGTTTAA | 0.26
TTTAGCACGTGTCTAG | -0.21
TGGTGCACGTGTAATC | 0.15
TGTATCACGTGCAGTG | 0.14
ATTCGCACGTGATGTG | 0.14
TGGTGCACGTGAAACG | 0.07
AGTGACACGTGAGTGA | 0.13
TTGTTCACGTGTCATT | 0.22
GCGAACACGTGTGTGT | -0.03
CGAGACACGTGGGTGG | -0.11
GACGTCACGTGGTCGT | 0.1
TAGGGCACGTGGCTCG | -0.12
GGTAACACGTGGATGT | -0.01
CGTTGCACGTGTTGGG | 0.06
